Structures are written as SMILES. The campaign covered roughly 48,000 compounds. About 120 (0.25%) were called active. Not shown: some 4% with an inconclusive outcome. Calls follow the shape of the dose curve; as a rule, active = well fitted activation curve with a large enough effect; inconclusive = small, poorly fitted or top-dose-only effect, or another doubt; inactive = no such curve, though single readings can be large or run the other way. The list shows a part of the results.

This experiment in a line: Primary qHTS for Identification of Small Molecule Activators of Huntingtin-Antisense Promoter Activity. Also: nearly all actives have a fitted effect of over 55% in size. As to conditions: HEK293 HTT-AS promoter firefly luciferase reporter, 24 h; series mostly up to 57.5 µM; activity change, positive = activation: at the top concentration. An excerpt: Assay Provider: Russell L. Margolis M.D.
Department Neurology, Johns Hopkins University School of Medicine, Baltimore, MD
Huntington's Disease (HD) is a neurodegenerative disorder caused by a CAG repeat expansion in exon 1 of huntingtin (HTT). While there are currently no disease-modifying treatments for HD, recent efforts have focused on development of nucleotide-based therapeutics to lower HTT expression. As an alternative to siRNA or oligonucleotide methods, we hypothesized that suppression of HTT expression might be accomplished by small molecules that either (1) directly decrease HTT expression by suppressing HTT promoter activity or (2) indirectly decrease HTT expression by increasing the promoter activity of HTT-AS, the gene antisense to HTT that appears to inhibit expression of HTT.
We developed and employed a high throughput screen for modifiers of HTT and HTT-AS promoter activity using luminescent reporter HEK293 cells; of the 52,041 compounds tested, we identified 898 replicable hits. We used a rigorous stepwise approach to assess compound toxicity and the capacity of the compounds to specifically lower huntingtin protein in 5 different cell lines, including HEK293 cells, HD lymphoblastoid cells, mouse primary neurons, HD iPSCs differentiated into cortical-like neurons, and HD hESCs. We found no compounds which were able to lower huntingtin without lowering cell viability in all assays, though the potential efficacy of a few compounds at non-toxic doses could not be excluded.
SEQUENCE No. (1, 2, 3, etc.); […] (e.g., Cells, Incubation, Reagent, etc.); VALUE and DESCRIPTION.
1; Reagent; 4 uL; 2,500 Hek293 luciferase reporter cells per wells
3; Compound; 23 nL; Control inhibitor / compound library
5; Reagent; 2.5 uL; Firefly Luc reagent; Dual-Glo Luciferase Reporter Assay System (Promega)
6; Time; 10 min; room temperature incubation
7; Detection; Luminescence; FLuc
NOTES (numbers refer to sequence above)
1; High-throughput screening, measuring luminescence from a Hek293 luciferase reporter, was performed in 1,536 well white-walled tissue-culture treated plates. 2,500 cells were plated in 4 µL of Opti-MEM per well using a Multidrop Combi Reagent Dispenser (ThermoFisher).
2; Assay plates were cultured for 24 hours.
3; Control inhibitor (PTC124; final concentration of 50 uM) and compound library (at final concentrations of 460 nM - 57.5 uM) were added to the assay plate using the Kalypsis Pintool Robotic System equipped with 1536 pinheads.
4; Cells were then incubated for 24 hours at 37 degrees C prior to luminescence measurements.
5; In all cases, luminescence was measured using the Dual-Glo Luciferase Reporter Assay System (Promega) following the manufacturer's instructions.
6; Room temperature incubation.
7; Luminescence signal was obtained using the PerkinElmer ViewLux plate reader. Results were normalized to vehicle control (0% activity) and zero RLU (-100% activity).
(In general: In qHTS, concentration-response curves come from the screen itself.)
Regarding `Cc1ccc(OCc2ccc(-c3nc(C#N)c(NCc4cccnc4)o3)o2)cc1`, the “activity change, positive = activation” value is inactive: -44.9%.

Regarding `CC1CCN(CCCC(=O)c2ccc(F)cc2)CC1`, the “activity change, positive = activation” value was inactive: -8.04%.

For the compound `COc1ccccc1N1CCN(S(=O)(=O)c2c(C)sc3ncn(CC(=O)N(C)c4ccc(Cl)cc4)c(=O)c23)CC1`, the “activity change, positive = activation” value is inactive: -17.9%.

For the compound `CCNC(=O)c1c(NC(=O)Cc2coc3cc(C)cc(C)c23)sc2c1CCCC2`, the “activity change, positive = activation” value was inactive: -7.77%.

As to `Oc1c(C(c2ccccc2F)N2CCN(Cc3ccccc3)CC2)sc2nc(-c3ccco3)nn12` (configuration not stated), the “activity change, positive = activation” value is inactive: -17.6%.

For `Cc1c(C(=O)N2CCC(c3nc4ccccc4s3)CC2)oc2ccc(Cl)cc12`, the activity change, positive = activation is inactive: 8.65% [at 11.5 µM, percent change from vehicle, -100% = no light].

As to `Cc1ccc(Cl)cc1NC(=O)Cn1c(=O)oc2cc(S(=O)(=O)N3CCCC3)ccc21`, the “activity change, positive = activation” value was inactive: -42.6%.

Consider `Cc1ccc2c(CC(=O)Nc3ccc(S(=O)(=O)N4CCCCC4)cc3)coc2c1`, for which the “activity change, positive = activation” value is inactive: -5.23%.

Regarding `CCOc1ccccc1N(C)C(=O)C1CCCN(c2ncnc3c2nc2n3CCCCC2)C1` (configuration not stated), the “activity change, positive = activation” value is inactive: 2.3%.

For the compound `Nc1ccc(S(N)(=O)=O)cc1`, the activity change, positive = activation entry was “inactive”.

Turning to `Cc1cc(C)c2c(=O)nc(SCc3ccccc3C)n(C3CC3)c2n1`, the “activity change, positive = activation” value is inactive: 4.12%.

As to `Cc1ccc(NC(=O)c2cc(-c3ccc(Br)s3)nc3ccccc23)cc1F`, the “activity change, positive = activation” value was inactive: -0.401%.

Consider `COCCn1c(=NC(=O)c2ccc3c(c2)OCCO3)sc2cc(C(=O)OC)ccc21`, for which the “activity change, positive = activation” value is inactive: -24.5%.

Turning to `COc1ccc(C(=O)OC2=C(C(=O)c3ccccc3)N(C)S(=O)(=O)c3ccccc32)cc1OC`, the “activity change, positive = activation” value was inactive: -8.25%.

On to `COc1ccc(-n2ncc3c(NCCC4=CCCCC4)ncnc32)cc1`, for which the “activity change, positive = activation” value is inactive: 21.4%.

In the case of `Cc1noc(/C=C/c2ccco2)c1S(=O)(=O)N1CCC(C(=O)Nc2ccc(F)c(Cl)c2)CC1`, the “activity change, positive = activation” value was inactive: -45.3%.

With `Cc1ccccc1-c1nc(CS(=O)(=O)CC(=O)NCc2cccc(Cl)c2)c(C)o1`, the “activity change, positive = activation” value was inactive: -12.8%.

Turning to `CCC1=Nc2cc(C(=O)NC3CCCC3)ccc2Sc2ccc(Br)cc21`, the “activity change, positive = activation” value is inactive: -46.2%.

Take `Cc1ccc(N2CC(C(=O)Nc3ccc(Br)cc3)CC2=O)cc1` (configuration not stated): the “activity change, positive = activation” value is inactive: -1.29%.

Consider `Cc1ccc2c(=O)c(C(=O)c3cccc(Cl)c3)cn(CC(=O)NCc3ccc(F)cc3)c2n1`, for which the “activity change, positive = activation” value was inactive: -14.4%.

As to `C=Cc1ccc(CN2C(=O)N(c3cccc(Cl)c3)S(=O)(=O)c3ccccc32)cc1`, the “activity change, positive = activation” value was inactive: -18.1%.

As for `COc1ccc(C(=O)n2nc(-c3ccco3)nc2NCc2cccs2)cc1`, the “activity change, positive = activation” value was inactive: 6.74%.

For `COC(=O)c1ccccc1NC(=O)Cn1nnc2sc(-c3ccccc3)cc2c1=O`, the “activity change, positive = activation” value is inactive: -2.46%.

Take `CCOc1ccccc1NC(=O)NCCn1c(=O)oc2ccc(C)cc21`: the “activity change, positive = activation” value is inactive: -19.1%.

On to `COc1ccccc1CNS(=O)(=O)c1cc2c3c(c1)CCN3C(=O)CC2`, for which the “activity change, positive = activation” value was inactive: -10.8%.

As to `COc1ccc(-c2nc(-c3ccccc3)c(-c3ccc(O)cc3)[nH]2)cc1`, the “activity change, positive = activation” value was inactive: -16.6%.

`COc1ccccc1C(=O)NCCn1cc(SCc2ccccc2Cl)c2ccccc21`: the “activity change, positive = activation” value was inactive: -33%.

Consider `O=C(/C=C/c1ccc(F)cc1)Nc1nc2n(n1)C(c1ccc(Cl)cc1)C=C(c1ccccc1)N2` (configuration not stated), for which the “activity change, positive = activation” value was inactive: -17.2%.

As for `COc1ccc(Cn2c(C(=O)O)c(CNC3CCCCCC3)c3ccc(OC)cc32)cc1`, the “activity change, positive = activation” value was inactive: -25.7%.

On to `COc1ccc(OC)c(CNC(=O)CCn2c(=O)c3cccn3c3ccc(F)cc32)c1`, for which the “activity change, positive = activation” value was inactive: -13.5%.

`Cc1ccc2sc(N3CCN(C(=O)CCS(=O)(=O)c4ccc(F)cc4)CC3)nc2c1C`: the “activity change, positive = activation” value was inactive: -38.7%.

Turning to `CCOC(=O)c1ccc(NC(=O)c2ncn(-c3ccccc3)n2)cc1`, the “activity change, positive = activation” value is inactive: 28%.

For `COc1ccc(N2CCN(C(=O)CCn3c(=O)c4cccn4c4cccnc43)CC2)cc1`, the “activity change, positive = activation” value was inactive: -12.4%.

With `CC(NC(=O)Nc1cc(Cl)ccc1Cl)c1c(-n2cccc2)sc2c1CCCC2` (configuration not stated), the “activity change, positive = activation” value is inactive: -18.9%.

Take `CCN(CC)c1ccc(C(=O)N2CCC(c3c[nH]c4ccccc34)(c3c[nH]c4ccccc34)CC2)cc1`: the “activity change, positive = activation” value was inactive: -23%.

Take `O=C(NC1CCN(Cc2ccccc2)CC1)c1ccc(Cn2c(=O)c3ccccc3n(Cc3ccccc3)c2=O)cc1`: the “activity change, positive = activation” value was inactive: -22.9%.

As to `Cc1ccc(-c2nc(-c3cc4cccc(OCc5cccc(C)c5)c4oc3=O)no2)cc1`, the “activity change, positive = activation” value was inactive: -1.64%.

`CCc1c(C)nc2nncn2c1Nc1ccc(C(C)C)cc1`: the “activity change, positive = activation” value is inactive: -20.4%.

For the compound `Cc1ccc(CNC(=O)c2ccc(-n3cnc4cccnc43)cc2)cc1`, the “activity change, positive = activation” value is inactive: -9.11%.

Take `CCc1ccc(NC(=O)Cn2c3ncccc3c(=O)n2-c2ccc(C)c(C)c2)cc1`: the “activity change, positive = activation” value is inactive: -1.09%.

As for `Cc1ccc(NC(=O)/C(C#N)=C/c2cc(C)n(-c3ccc(F)cc3)c2C)cc1C`, the “activity change, positive = activation” value was inactive: -3.12%.

In the case of `O=C(c1ccc2c(c1)N(Cc1ccccc1F)C(=O)c1ccccc1S2=O)N1CCN(c2ccccc2)CC1` (configuration not stated), the “activity change, positive = activation” value was inactive: -33.5%.

In the case of `O=C(NCc1cccc(Cl)c1)C(=O)Nc1ccc2nc3n(c(=O)c2c1)CCCCC3`, the “activity change, positive = activation” value is inactive: -9.4%.

Turning to `CCCCN1CCCc2cc(CN(CCCN3CCOCC3)C(=O)Nc3ccc(OCC)cc3)ccc21`, the “activity change, positive = activation” value is inactive: -27.1%.

Take `COc1ccc(C)cc1Nc1c2c(nc3nc(-c4cccs4)nn13)CCCC2`: the “activity change, positive = activation” value was inactive: -8.58%.

As to `COc1cccc(CN2CCc3nc(SCC(=O)Nc4ccccc4)[nH]c(=O)c3C2)c1`, the “activity change, positive = activation” value is inactive: -22.6%.

For the compound `CC(C)C[C@H](NC(=O)c1cc2ccccc2s1)C(=O)N1CCN(C(=O)[C@H](CO)NS(=O)(=O)c2ccc(Cl)cc2Cl)CC1`, the “activity change, positive = activation” value is inactive: -23.9%.
